Experimental data reported in the supplement of paper PMC12217912.
Some of the results follow. Sequences were assembled here from the parent chain. Values near 0.05 are background.

B1: TEV protease; numbered along this chain (parent)
chain: MGESLFKGPRDYNPISSSICHLTNESDGHTTSLYGIGFGPFIITNKHLFRRNNGTLVVQSLHGVFKVKDTTTLQQHLVDGRDMIIIRMPKDFPPFPQKLKFREPQREERICLVTTNFQTKSMSSMVSDTSCTFPSGDGIFWKHWIQTKDGQCGSPLVSTRDGFIVGIHSASNFTNTNNYFTSVPKNFMELLTNQEAQQWVSGWRLNADSVLWGGHKVFMVKPEEPFQPVKEATQL

Variants of: B1
Assay: raw area under fraction-flipped curve 0-4 h after induction (AUC4h, not background-subtracted), DNA-recorder readout of cleavage of the substrate (dimensionless); higher = more cleavage of the substrate by the protease variant
Details: temperature: 34 °C; time window: 0-4 h after rhamnose induction
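Note: Bxb1 expression induced with 0.2% (w/v) L-rhamnose at OD600 near 0.5, cultures sampled hourly, flipped fraction per protease–substrate barcode pair counted by paired-end Illumina sequencing.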

Variant	area with substrate ENLDFQS	area with substrate ENLEFQS	area with substrate ENLFFQS	area with substrate ENLGFQS	area with substrate ENLHFQS	area with substrate ENLIFQS	area with substrate ENLKFQS	area with substrate ENLLFQS	area with substrate ENLNFQS	area with substrate ENLRFQS	area with substrate ENLSFQS	area with substrate ENLPFQS	area with substrate ENLQFQS	area with substrate ENLWFQS	area with substrate ENLVFQS	area with substrate ENLMFQS
MGESLFKGPRDYNPISSSICHLTNESDGHTTSLYGIGFGPFIITNKHLFRRNNGTLVVQSLHGVFKVKDTTTLQQHLVDGRDMIIIRMPKDFPPFPQKLKFREPQREERICLVTTNFPTKSMSSMVSDTSCTFPSGDGIFWKHWIQTKDGQCGSPLVSTRDGFIVGIHSASNFTNTNNYFTSVPKNFMELLTNQEAQQWVSGWRLNADSVLWGGHKVFMVKPEEPFQPVKEATQL [Q118P]	0.0841	0.0455	0.0893	0.0549	0.0693	0.0906	0.0783	0.08	0.0616	0.0745	0.0692	–	–	–	–	–
MGESLFKGPRDYNPISSSICHLTNESDGHTTSLYGIGFGPFIITNKHLFRRNNGTLVVQSLHGVFKVKDTTTLQQHLVDGRDMIIIRMPKDFPPFPQKLKFREPQREERICLVTTNFRTKSMSSMVSDTSCTFPSGDGIFWKHWIQTKDGQCGSPLVSTRDGFIVGIHSASNFTNTNNYFTSVPKNFMELLTNQEAQQWVSGWRLNADSVLWGGHKVFMVKPEEPFQPVKEATQL [Q118R]	0.0677	0.0808	0.0997	–	0.0711	0.0856	0.0826	0.0665	0.0654	–	–	0.0588	0.0595	–	–	–
MGESLFKGPRDYNPISSSICHLTNESDGHTTSLYGIGFGPFIITNKHLFRRNNGTLVVQSLHGVFKVKDTTTLQQHLVDGRDMIIIRMPKDFPPFPQKLKFREPQREERICLVTTNFQTKSMSSMVSDTSCTFPSGDGIFWKHWIQKKDGQCGSPLVSTRDGFIVGIHSASNFTNTNNYFTSVPKNFMELLTNQEAQQWVSGWRLNADSVLWGGHKVFMVKPEEPFQPVKEATQL [T147K]	0.0588	0.0668	0.0634	–	0.0688	0.0647	0.068	–	0.0628	–	0.0579	0.0766	–	0.0565	–	–
MGESLFKGPRDYNPISSSICHLTNESDGHTTSLYGIGFGPFIITNKHLFRRNNGTLVVQSLHGVFKVKDTTTLQQHLVDGRDMIIIRMPKDFPPFPQKLKFREPQREERICLVTTNFQTKSMSSMVSDGSCTFPSGDGIFWKHWIQTKDGQCGSPLVSTRDGFIVGIHSASNFTNTNNYFTSVPKNFMELLTNQEAQQWVSGWRLNADSVLWGGHKVFMVKPEEPFQPVKEATQL [T129G]	0.0622	–	0.101	–	0.0744	–	0.0677	0.0663	–	0.0761	–	–	0.0959	0.079	–	–
MGESLFKGPRDYNPISSSICHLTNESDGHTTSLYGIGFGPFIITNKHLFRRNNGTLVVQSLHGVFKVKDTTTLQQHLVDGRDMIIIRMPKDFPPFPQKLKFREPQREERICLVTTNFQTKSMSSMVSDTSCTFPSGDGIFWKHWIQTKDGQCGSPLVSTRDGFIVGIHSAQNFTNTNNYFTSVPKNFMELLTNQEAQQWVSGWRLNADSVLWGGHKVFMVKPEEPFQPVKEATQL [S171Q]	0.0605	0.0429	0.0717	–	0.0899	0.0703	–	0.0597	0.0703	–	0.0618	0.0653	0.0611	–	0.0623	–
MGESLFKGPRDYNPISSSICHLTNESDGHTTSLYGIGFGPFIITNKHLFRRNNGTLVVQSLHGVFKVKDTTTLQQHLVDGRDMIIIRMPKDFPPFPQKLKFREPQREERICLVTTNFQTKSMSSMVSDTSCTFPSGDGIQWKHWIQTKDGQCGSPLVSTRDGFIVGIHSASNFTNTNNYFTSVPKNFMELLTNQEAQQWVSGWRLNADSVLWGGHKVFMVKPEEPFQPVKEATQL [F140Q]	0.0652	0.0573	0.0565	–	0.0625	–	0.0708	–	–	0.0655	–	0.056	–	0.0457	0.0931	–
MGESLFKGPRDYNPISSSICHLTNESDGHTTSLYGIGFGPFIITNKHLFRRNNGTLVVQSLHGVFKVKDTTTLQQHLVDGRDMIIIRMPKDFPPFPQKLKFREPQREERICLVTTNFQTKSMSNMVSDTSCTFPSGDGIFWKHWIQTKDGQCGSPLVSTRDGFIVGIHSASNFTNTNNYFTSVPKNFMELLTNQEAQQWVSGWRLNADSVLWGGHKVFMVKPEEPFQPVKEATQL [S124N]	0.0593	–	–	–	–	0.0863	–	–	–	0.0757	0.0815	–	0.0649	–	–	–
MGESLFKGPRDYNPISSSICHLTNESDGHTTSLYGIGFGPFIITNKHLFRRNNGTLVVQSLHGVFKVKDTTTLQQHLVDGRDMIIIRMPKDFPPFPQKLKFREPQREERICLVTTNFQTKSMSSMVSDTSCTFPSGDGIFWKHWIQTKDGQCGSPLVSTRDGFIVGIHSASNFTNTNNYFTSVPHNFMELLTNQEAQQWVSGWRLNADSVLWGGHKVFMVKPEEPFQPVKEATQL [K185H]	0.0762	0.0627	0.0759	–	0.102	0.0921	–	0.101	–	–	–	–	–	–	–	0.0759
MGESLFKGPRDYNPISSSICHLTNESDGHTTSLYGIGFGPFIITNKHLFRRNNGTLVVQSLHGVFKVKDTTTLQQHLVDGRDMIIIRMPKDFPPFPQKLKFREPQREERICLVTTNFQTKSMSSMVSDTSCTFPSGDGIFWKHWIQTKDGQCGSPLVSTRDGFIVGIHSASNFTNTNNYFTSVPKNFMELETNQEAQQWVSGWRLNADSVLWGGHKVFMVKPEEPFQPVKEATQL [L191E]	0.0586	0.0482	0.0667	–	0.0683	–	–	–	0.069	0.0571	0.0471	0.0371	0.052	–	0.0648	0.0583
MGESLFKGPRDYNPISSSICHLTNESDGHTTSLYGIGFGPFIITNKHLFRRNNGTLVVQSLHGVFKVKDTTTLQQHLVDGRDMIIIRMPKDFPPFPQKLKFREPQREERICLVTTNFQTKSMSSMVSDTSCTFPSGDGIFWKHWIQTKDGQCGSPLVSTRDIFIVGIHSASNFTNTNNYFTSVPKNFMELLTNQEAQQWVSGWRLNADSVLWGGHKVFMVKPEEPFQPVKEATQL [G162I]	0.0575	–	0.0852	–	–	0.054	–	0.0583	0.0587	0.0795	0.0472	0.0579	–	–	–	–
